Data: the supplement of paper PMC9151546
Most values come without repeats; read them as rough.

Experiments:
CHO-K1 [1] = experiment: relative survival (nuclei to bead ratio vs DMSO control) (% of vehicle control); higher = more surviving cells
Protocol: (§1)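 Flow-cytometric in vitro micronucleus assay (Litron MicroFlow) in CHO-K1 cells in 96-well plates, 19 concentrations (4.5-200 µM, n=1 per concentration). Without S9, cells were exposed for 24 h and sampled at 48 h. With Aroclor 1254-induced rat liver S9, cells were exposed for 3-4 h and sampled at 27-28 h. Read-outs are %MN and %hypodiploid nuclei relative to nucleated events, and relative survival as the nuclei-to-bead ratio versus the 1% DMSO vehicle control (x100).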

CHO-K1 [2] = experiment: hypodiploid nuclei frequency (% of nucleated events); higher = more hypodiploid events (aneugenic)
Protocol: as §1

CHO-K1 [3] = experiment: micronucleus frequency (% of nucleated events); higher = more micronuclei (genotoxic)
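Wherever hypodiploid nuclei frequency (% of nucleated events) is given: hypodiploid nuclei gated on a flow cytometer with 488 nm excitation after SYTOX Green staining, cultures at 37 °C, positive controls vinblastine without S9 and cyclophosphamide with S9.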
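Wherever micronucleus frequency (% of nucleated events) is given: cells lysed with nuclei stained by SYTOX Green, then micronucleus-gated events counted against nucleated events by flow cytometry with 488 nm excitation.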
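Wherever relative survival (nuclei to bead ratio vs DMSO control) is given: Lysed-cell nuclei stained with SYTOX Green and counted against counting beads by flow cytometry at 488 nm excitation, with vinblastine (no S9) and cyclophosphamide (plus S9) as positive controls.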

CC(C)(c1cc(Br)c(O)c(Br)c1)c1cc(Br)c(O)c(Br)c1 [3,3',5,5'-Tetrabromobisphenol A]
Conditions	hypodiploid nuclei frequency, CHO-K1 [2] [%]	micronucleus frequency, CHO-K1 [3] [%]	relative survival, CHO-K1 [1]
concentration: 4.3 (µM), S9 metabolic activation: with S9, exposure time: 3-4 hours	0.54	2.22	118
concentration: 4.3 (µM), S9 metabolic activation: without S9, exposure time: 24 hours	0.44	1.06	83.6
concentration: 5.38 (µM), S9 metabolic activation: with S9, exposure time: 3-4 hours	0.14	0.98	115
concentration: 5.38 (µM), S9 metabolic activation: without S9, exposure time: 24 hours	0.3	1.3	111
concentration: 6.72 (µM), S9 metabolic activation: with S9, exposure time: 3-4 hours	0.28	1.7	107
concentration: 6.72 (µM), S9 metabolic activation: without S9, exposure time: 24 hours	0.48	1.04	135
concentration: 8.4 (µM), S9 metabolic activation: with S9, exposure time: 3-4 hours	0.24	1.46	129
concentration: 8.4 (µM), S9 metabolic activation: without S9, exposure time: 24 hours	0.4	1.2	124
concentration: 10.5 (µM), S9 metabolic activation: with S9, exposure time: 3-4 hours	0.2	0.9	116
concentration: 10.5 (µM), S9 metabolic activation: without S9, exposure time: 24 hours	0.34	0.86	92.2
concentration: 13.1 (µM), S9 metabolic activation: with S9, exposure time: 3-4 hours	0.24	1.1	128
concentration: 13.1 (µM), S9 metabolic activation: without S9, exposure time: 24 hours	0.44	0.94	149
concentration: 16.4 (µM), S9 metabolic activation: with S9, exposure time: 3-4 hours	0.32	0.82	102
concentration: 16.4 (µM), S9 metabolic activation: without S9, exposure time: 24 hours	0.48	1.08	140
concentration: 20.5 (µM), S9 metabolic activation: with S9, exposure time: 3-4 hours	0.26	0.84	103
concentration: 20.5 (µM), S9 metabolic activation: without S9, exposure time: 24 hours	0.34	1.26	114
concentration: 25.6 (µM), S9 metabolic activation: with S9, exposure time: 3-4 hours	0.2	1.42	116
concentration: 25.6 (µM), S9 metabolic activation: without S9, exposure time: 24 hours	0.58	0.92	52.3
concentration: 32 (µM), S9 metabolic activation: with S9, exposure time: 3-4 hours	0.62	1.48	99.8
concentration: 32 (µM), S9 metabolic activation: without S9, exposure time: 24 hours	0.52	1.1	144
concentration: 40.1 (µM), S9 metabolic activation: with S9, exposure time: 3-4 hours	0.9	2.56	85
concentration: 40.1 (µM), S9 metabolic activation: without S9, exposure time: 24 hours	0.68	1.82	67.1
concentration: 50.1 (µM), S9 metabolic activation: with S9, exposure time: 3-4 hours	0.6	1.96	82.2
concentration: 50.1 (µM), S9 metabolic activation: without S9, exposure time: 24 hours	1.12	1.3	96
concentration: 62.6 (µM), S9 metabolic activation: with S9, exposure time: 3-4 hours	0.54	6.82	62.3
concentration: 62.6 (µM), S9 metabolic activation: without S9, exposure time: 24 hours	1.36	1.58	82.3
concentration: 78.2 (µM), S9 metabolic activation: with S9, exposure time: 3-4 hours	–	–	31.3
concentration: 78.2 (µM), S9 metabolic activation: without S9, exposure time: 24 hours	4.28	4.12	54.3
concentration: 98 (µM), S9 metabolic activation: without S9, exposure time: 24 hours	8.61	5.66	41.3
concentration: 122 (µM), S9 metabolic activation: with S9, exposure time: 3-4 hours	–	–	8.34
concentration: 122 (µM), S9 metabolic activation: without S9, exposure time: 24 hours	3.82	3.85	44.6
concentration: 153 (µM), S9 metabolic activation: without S9, exposure time: 24 hours	–	–	37.9
concentration: 191 (µM), S9 metabolic activation: without S9, exposure time: 24 hours	–	–	18

OCCCBr [3-Bromo-1-propanol]
Conditions	hypodiploid nuclei frequency, CHO-K1 [2] [%]	micronucleus frequency, CHO-K1 [3] [%]	relative survival, CHO-K1 [1]
concentration: 4.5 (µM), S9 metabolic activation: with S9, exposure time: 3-4 hours	0.36	1.72	107
concentration: 4.5 (µM), S9 metabolic activation: without S9, exposure time: 24 hours	0.8	1.77	112
concentration: 5.63 (µM), S9 metabolic activation: with S9, exposure time: 3-4 hours	0.3	1.48	97.2
concentration: 5.63 (µM), S9 metabolic activation: without S9, exposure time: 24 hours	0.91	1.58	122
concentration: 7.04 (µM), S9 metabolic activation: with S9, exposure time: 3-4 hours	0.14	1	90.5
concentration: 7.04 (µM), S9 metabolic activation: without S9, exposure time: 24 hours	0.98	1.64	99.4
concentration: 8.8 (µM), S9 metabolic activation: with S9, exposure time: 3-4 hours	0.18	1.38	137
concentration: 8.8 (µM), S9 metabolic activation: without S9, exposure time: 24 hours	0.71	1.79	115
concentration: 11 (µM), S9 metabolic activation: with S9, exposure time: 3-4 hours	0.18	1.02	109
concentration: 11 (µM), S9 metabolic activation: without S9, exposure time: 24 hours	0.76	2.27	131.8
concentration: 13.7 (µM), S9 metabolic activation: with S9, exposure time: 3-4 hours	0.26	1.04	107
concentration: 13.7 (µM), S9 metabolic activation: without S9, exposure time: 24 hours	0.7	1.72	136
concentration: 17.2 (µM), S9 metabolic activation: with S9, exposure time: 3-4 hours	0.12	0.92	124
concentration: 17.2 (µM), S9 metabolic activation: without S9, exposure time: 24 hours	0.61	1.44	139
concentration: 21.5 (µM), S9 metabolic activation: with S9, exposure time: 3-4 hours	0.2	1.1	130
concentration: 21.5 (µM), S9 metabolic activation: without S9, exposure time: 24 hours	0.74	1.69	105
concentration: 26.8 (µM), S9 metabolic activation: with S9, exposure time: 3-4 hours	0.24	1.26	93
concentration: 26.8 (µM), S9 metabolic activation: without S9, exposure time: 24 hours	30.8	1.63	71.2
concentration: 33.6 (µM), S9 metabolic activation: with S9, exposure time: 3-4 hours	0.5	1.92	91.7
concentration: 33.6 (µM), S9 metabolic activation: without S9, exposure time: 24 hours	9.78	1.27	83.7
concentration: 41.9 (µM), S9 metabolic activation: with S9, exposure time: 3-4 hours	0.22	1.38	76.4
concentration: 41.9 (µM), S9 metabolic activation: without S9, exposure time: 24 hours	20.7	1.69	87.6
concentration: 52.4 (µM), S9 metabolic activation: with S9, exposure time: 3-4 hours	0.16	1.18	107
concentration: 52.4 (µM), S9 metabolic activation: without S9, exposure time: 24 hours	1.04	1.64	96.3
concentration: 65.5 (µM), S9 metabolic activation: with S9, exposure time: 3-4 hours	0.34	1.6	96.4
concentration: 65.5 (µM), S9 metabolic activation: without S9, exposure time: 24 hours	3.4	1.75	81.2
concentration: 81.9 (µM), S9 metabolic activation: with S9, exposure time: 3-4 hours	0.26	1.84	111
concentration: 81.9 (µM), S9 metabolic activation: without S9, exposure time: 24 hours	1.34	1.93	105
concentration: 102 (µM), S9 metabolic activation: with S9, exposure time: 3-4 hours	0.26	1.6	102
concentration: 102 (µM), S9 metabolic activation: without S9, exposure time: 24 hours	4.29	1.59	83.9
concentration: 128 (µM), S9 metabolic activation: with S9, exposure time: 3-4 hours	0.2	1.88	108
concentration: 128 (µM), S9 metabolic activation: without S9, exposure time: 24 hours	1.51	1.82	111
concentration: 160 (µM), S9 metabolic activation: with S9, exposure time: 3-4 hours	0.42	0.96	100
concentration: 160 (µM), S9 metabolic activation: without S9, exposure time: 24 hours	1.28	1.97	90.9
concentration: 200 (µM), S9 metabolic activation: with S9, exposure time: 3-4 hours	0.14	1.4	107
concentration: 200 (µM), S9 metabolic activation: without S9, exposure time: 24 hours	1.33	2.11	101
